The list shows a part of the results. Measured with an extract: partners may take part in the binding.

The subject of this assay is PU.1 (endogenous, THP-1 nuclear extract) + IRF8 (endogenous, THP-1 nuclear extract). Kind of assay: nuclear extract protein-binding microarray (nextPBM). The note with it: 20 mM HEPES pH 7.9, 100 mM NaCl, 1 mM DTT, 0.2 mg/mL BSA, 0.02% Triton X-100, 2% milk, 0.4 mg/mL salmon testes DNA; 1 h; temperature not stated; high values mean tight binding; double strand, one strand shown; sequences stand for … in GCCTAGCAC…GTGCTAGGTCTTGATTCGCTTGACGCTGCTG
On to TTCCTCACAGTGAGGAAGAG, for which the binding signal was -0.27 z-score. Under CAGTGACTCACGCCCATAAT stands 0.608 z-score. Under AAGAAAGGGGAAAAGAAAGG stands -0.172 z-score. As for CACTTTCAGGGCCCCTGCTG, the binding signal was found to be 1.18 z-score. Under CTGGGGTTTTGTTTAGATAG stands 0.437 z-score; under GAAAGCAACTTTCTACCTGA, 0.374 z-score.

On to CGTGTCACCCAGTACGCGGC, for which the binding signal was determined as 0.903 z-score.

These data come from publication PMC6451091.
